Data reported in the supplement of paper PMC3334620.
The full ranking holds about 33,000 sequences; the median of “E-score (-0.5 to 0.5)” is about -0.032, and the highest 2% start at about 0.36. This is one part of the list.

The sequences below were run against T1, Sko1 (UniProt Q02100) (assay: PBM E-score (8-mer binding enrichment) (E-score (-0.5 to 0.5)); higher = stronger / more preferred TF binding; most listed sequences are background and not binding sites). Conditions: protein concentration: 200 nM; construct: GST-full length.
T1 sequence: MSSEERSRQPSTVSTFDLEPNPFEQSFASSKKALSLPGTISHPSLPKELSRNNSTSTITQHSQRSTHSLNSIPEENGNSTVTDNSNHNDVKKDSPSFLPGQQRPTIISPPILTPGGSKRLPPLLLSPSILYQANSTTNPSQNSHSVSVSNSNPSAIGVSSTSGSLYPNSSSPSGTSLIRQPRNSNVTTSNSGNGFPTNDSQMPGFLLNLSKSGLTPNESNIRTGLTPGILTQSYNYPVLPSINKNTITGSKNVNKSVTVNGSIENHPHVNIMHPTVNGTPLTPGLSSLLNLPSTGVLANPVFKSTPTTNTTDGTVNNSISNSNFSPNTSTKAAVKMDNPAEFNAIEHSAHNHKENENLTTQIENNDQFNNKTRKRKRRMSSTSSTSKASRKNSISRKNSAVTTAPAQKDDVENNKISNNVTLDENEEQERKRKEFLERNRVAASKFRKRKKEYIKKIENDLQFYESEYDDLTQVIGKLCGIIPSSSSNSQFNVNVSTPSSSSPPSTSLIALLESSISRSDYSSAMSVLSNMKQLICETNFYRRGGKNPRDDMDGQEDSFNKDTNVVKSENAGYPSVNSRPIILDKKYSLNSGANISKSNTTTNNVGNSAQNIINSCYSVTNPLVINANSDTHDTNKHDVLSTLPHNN
In short: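 Detection of bound protein used fluorescent anti-GST, with scans normalised by masliner. The proteins were GST-tagged yeast transcription factors applied at about 100-200 nM to universal all-10-mer Agilent arrays made double-stranded by primer extension. Each ungapped eight-base word, pooled with its reverse complement, was scored with an E-score from the Universal PBM Analysis Suite.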

| Sequence | PBM E-score |
| --- | --- |
| CGTTACAA | 0.219 |
| GGAACGCA | -0.0403 |
| GGACTCAA | -0.204 |
| ATAACGAG | 0.122 |
| AGGCCCGA | -0.252 |
| ATTTATCA | 0.159 |
| CATGTTTC | 0.139 |
| CTCGTAAA | 0.139 |
| TGATTGAA | 0.0948 |
| ACGAAAGA | 0.202 |
| ATGACGCG | 0.476 |
| CTCACTTA | 0.00501 |
| CGCCCTAG | -0.143 |
| AACTGTCC | -0.334 |
| CACGTGGA | 0.315 |
| TCGCTTAA | -0.0032 |
| TTGAACAA | 0.0438 |
| AAAGTGTA | 0.176 |
| AGACCGTA | -0.0268 |
| CCCGGCAG | -0.352 |
| CAAGGATC | -0.138 |
| ACCTAACG | 0.129 |

| Sequence | PBM E-score |
| --- | --- |
| ATCTAAGG | 0.0499 |
| ATCCGTGA | -0.0237 |
| GACCTCGA | -0.126 |
| ACTAGATC | -0.0827 |
| ATGCGTGG | 0.0146 |
| GTGTTCAA | 0.0463 |
| GAGCCAGC | -0.274 |
| ACCGAGGT | -0.25 |
| CGAATAAC | 0.179 |
| CCCCCGAC | -0.286 |
| CCTCACCG | -0.323 |
| CTCTCTTA | -0.0213 |
| CGAAGTTA | 0.016 |
| AAAGCGGC | -0.14 |
| ACTTTAAA | 0.101 |
| AGACGTGG | 0.203 |
| AGTGCTCA | -0.0912 |
| CGATTATA | 0.0869 |
| CAAGCTCA | -0.13 |
| AGCGGTGG | -0.294 |
| AAGTCCTC | -0.162 |
| AATCCTGT | 0.113 |

| Sequence | PBM E-score |
| --- | --- |
| GAATTCGA | -0.136 |
| CTTATGAC | 0.374 |
| AGCATGTA | 0.162 |
| GCTGAGAA | -0.241 |
| CGTTATTC | 0.152 |
| AGTGTTCC | -0.00379 |
| GGGGACCA | -0.0883 |
| CCATGCAC | -0.124 |
| GGTATACC | -0.122 |
| CACCGAGC | -0.0943 |
| ACTTTTCC | 0.0503 |
| TGTTGCAA | 0.131 |
| ATAGAGAG | -0.271 |
| TATGAGCA | 0.00789 |
| GGGGCAAA | -0.158 |
| GCCGAAGA | 0.168 |
| ACTGCAAC | -0.0632 |
| GCCTAGCA | -0.258 |
| AAATGCCT | -0.0889 |
| GACATGTA | 0.146 |
| CATCTAAA | 0.0852 |
| AATATCCT | 0.00379 |

| Sequence | PBM E-score |
| --- | --- |
| GTCCATAA | -0.0368 |
| ATCCGGTC | -0.218 |
| CCGGTCAG | -0.324 |
| ACTAGGTG | -0.208 |
| AGCGCCCA | -0.272 |
| GAAGTGAA | -0.0799 |
| GTCCGCTA | -0.135 |
| ATTAGGTA | 0.354 |
| GCGCCGCA | -0.129 |
| ATCTTACC | 0.0235 |
| GCATAGGA | -0.046 |
| ATCTCCCA | -0.133 |
| GCGCATAA | 0.0577 |
| CAGAGTAC | -0.0565 |
| ACGTCTTA | 0.408 |
| GCTAAAAA | -0.0445 |
| AGAATCTG | -0.0035 |
| CACGCATA | 0.0358 |
| CCGCGGCC | -0.206 |
| CGCTGCCG | -0.257 |
| TAACTAAA | 0.141 |
| GACGGGCC | -0.196 |

| Sequence | PBM E-score |
| --- | --- |
| CAACGCTG | -0.0634 |
| TGCCTAAA | 0.0424 |
| AGCGTTTA | 0.00426 |
| AGTGCTCC | -0.154 |
| AACCGATT | -0.0469 |
| CGAACCAC | -0.139 |
| GAGTAATC | 0.0265 |
| GCTGGACC | -0.273 |
| GTAAATCA | 0.157 |
| AAAATGTT | 0.177 |
| ATGTATCA | 0.226 |
| AGAATCAG | -0.0239 |
| GATAGCAC | -0.11 |
| CAGGCATA | -0.0996 |
| GACTGCTC | 0.00729 |
| CGGAACAG | -0.228 |
| GAAGCCGC | -0.211 |
| TCCCACCA | -0.211 |
| AAGTACGA | 0.201 |
| GGGACGGA | -0.351 |
| CACACTAA | 0.178 |
